Out of some 48,000 compounds screened, about 1,200 (2.5%) were called active. Inconclusive results (about 2%) are left out.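 The calls were made as follows: active = activation of at least 60% and not above a set upper limit (about 1 call in 100 departs from these limits); inconclusive = activation of 40% to 60%, or above that upper limit; inactive = activation under 40%.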 Some of the results follow.

Chain of UniProt O75388 (O75388 whole entry, looked up): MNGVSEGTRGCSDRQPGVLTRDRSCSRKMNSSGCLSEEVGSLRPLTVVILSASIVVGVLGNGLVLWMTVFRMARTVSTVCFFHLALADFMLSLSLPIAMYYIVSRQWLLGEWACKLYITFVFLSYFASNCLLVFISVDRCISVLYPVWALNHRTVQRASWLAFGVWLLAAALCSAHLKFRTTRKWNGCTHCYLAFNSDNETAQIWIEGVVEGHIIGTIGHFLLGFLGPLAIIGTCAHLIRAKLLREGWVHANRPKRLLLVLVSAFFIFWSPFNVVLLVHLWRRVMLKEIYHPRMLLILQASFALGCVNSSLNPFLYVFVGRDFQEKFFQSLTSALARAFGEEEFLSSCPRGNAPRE

This experiment has as its target Probable G-protein coupled receptor 32 (Homo sapiens) (UniProt O75388). Description: qHTS for Agonists of Human Resolvin D1 Receptor DRV1. Also: 0% is about no effect. Conditions: CHO-K1 GPR32 beta-arrestin PathHunter luminescence, 90 min; at 76.9 µM; active compounds read high; zero percent set by DMSO-only wells. In a few lines:
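Engineered CHO-K1 line co-expressing GPR32-ProLink and EA-beta-arrestin. Compound treatment lasted 90 min at 37 °C. Luminescence was recorded after 1 h with substrate at ambient temperature, relative to DMSO basal wells.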
On to `CCOC(=O)c1ccc2c(c1)N(CC(=O)Nc1ccc(C)cc1C)C(=O)c1ccccc1S2`, for which the activation is inactive: -3.45%.
The value for `COc1ccc(-c2nc(C(N)=O)c3c(n2)n(-c2ccccc2OC)c(=O)n3C)c(OC)c1` was inactive: -6.38%.
The value for `O=C(c1ccc2c(c1)N(Cc1ccc(Cl)cc1)C(=O)c1ccccc1S2=O)N1CCN(c2ccccc2F)CC1` (configuration not stated) was inactive: 27.4%; that for `CCOc1ccccc1NC(=O)C(NS(=O)(=O)c1ccc2c(c1)CCC(=O)N2)c1ccccc1` (configuration not stated) was inactive: -10.3%.
Next, `O=C(NC1CCCCCC1)c1cc2c(Cl)nc3ccccc3c2s1`: inactive: -0.412%; `CC(C)NC(=O)CC(=O)Nc1ccc2nc3n(c(=O)c2c1)CCCCC3`: inactive: 9.95%; `N=C(N)N`: inactive: -8.89%.
Regarding `O=C(c1ccc(F)cc1)N1CCC(c2nc3ccccc3o2)CC1`, the activation was inactive: 4.12%.
As to `CSc1cccc(NC(=O)C2CCN(c3ncnc4c3nc3n4CCCCC3)CC2)c1`, the activation was inactive: -12%.
`O=C(CCC(=O)N1CC2CCCN2c2ccccc21)NCc1ccccc1` (configuration not stated): the activation was inactive: -28.3%.
Next, `COc1ccc(CNC(=O)c2ccc3c(c2)N(C)C(=O)C2CCCCN32)cc1OC` (configuration not stated): inactive: 13.7%; `CC(C)(C)c1ccc(Oc2nc3ccccn3c(=O)c2/C=C(\C#N)c2nc3ccccc3[nH]2)cc1`: inactive: 7.97%.
Next, `CCOc1ccc(CC(=O)NCCc2csc(-c3ccc(C(F)(F)F)cc3)n2)cc1`: inactive: 3.37%; `Cc1nn(C(=O)COc2ccccc2)c(C)c1Sc1ccccc1`: inactive: -13.6%; `CCOC(=O)c1ccc(NC(=O)C2=C(C)Nc3nc(SCc4ccc(Cl)cc4)nn3C2c2ccc(C)cc2)cc1` (configuration not stated): inactive: 12.1%.
The value for `CCCCOc1ccc(C(=O)N2CCC(c3nc4ccccc4o3)CC2)cc1` was inactive: -11.1%; that for `CCc1ccccc1NC(=O)Cn1nnc(-c2nc(-c3ccc(C)cc3)no2)c1N` was inactive: -4.62%; that for `Cc1ccc2c(c1)sc1nc(-c3cc4ccccc4oc3=O)cn12` was inactive: -3.58%.
With `CCOC(=O)c1ccccc1NC(=O)CN1C(=O)CC(c2ccco2)Sc2ccccc21` (configuration not stated), the activation is inactive: 41.9%.
For `Cc1ccc(C(=O)Nc2ccc(C(=O)OCc3cc(=O)n4nc(C5CC5)sc4n3)cc2)cc1`, the activation is inactive: 1.01%.
Next, `Cc1oc(-c2ccc(Cl)cc2)nc1Cn1c(=O)cc(C)c2c(C)nn(-c3cccc(F)c3)c21`: inactive: -5%; `COc1ccc(NC(=O)C(=O)NCC(c2ccc3c(c2)OCO3)N2CCN(C)CC2)cc1` (configuration not stated): inactive: -6.7%; `COc1ccc(N2CCN(c3c4c(nc5nncn35)CCC4)CC2)cc1`: inactive: 25.3%.
Next, `CCn1cc(C(=O)N2CCN(c3ccc(F)cc3)CC2)c(=O)c2cc(S(=O)(=O)N3CCOCC3)ccc21`: inactive: -1.99%.
Next, `COc1ccc(CCNC(=O)c2cc(Nc3cc(C)cc(C)c3)nc3ccccc23)cc1OC`: inactive: -5.33%.
As for `CCc1ccccc1NC(=O)CSc1ncc(S(=O)(=O)c2ccccc2)c(N)n1`, the activation was inactive: 4.43%.
For the compound `CCOc1cc(CNC(=O)CCCn2c(=O)c3cccn3c3cccnc32)cc(OCC)c1OCC`, the activation is inactive: -15.1%.
Next, `CC(=O)Nc1cccc(NC(=O)CSc2cn(CC(=O)N(C(C)C)C(C)C)c3ccccc23)c1`: inactive: -16.5%; `CC(=O)c1ccc(NS(=O)(=O)c2cc3[nH]c(=O)c(=O)[nH]c3cc2C)cc1`: inactive: -7.51%.
Turning to `C/C=C/C(=O)N(CC)c1ccccc1C`, the activation was inactive: 0.921%.
The value for `COc1ccc(S(=O)(=O)NCCc2nnc3ccc(SCC(=O)Nc4ccc(C(F)(F)F)cc4)nn23)cc1` was inactive: -19.1%; that for `Cc1ccc(C)c(N2CCN(C(=O)Cn3ncc4c(=O)oc5ccc(C)cc5c43)CC2)c1` was inactive: -7.12%.
With `Cc1ccccc1Cn1nc(C)c(NC(=O)c2cc(-c3ccc(F)cc3)on2)c1C`, the activation is inactive: 6.09%.
Next, `CCOc1ccccc1CNc1ncnc2c1nc1n2CCCC1`: inactive: -8.06%; `CSc1ccc(CCNC(=O)CCc2c(C)nc3c(-c4ccccc4)c(C)nn3c2C)cc1`: inactive: -5.29%.
The value for `CCc1ccc(CSc2nc(-c3ccccc3OC)nc3c2Cc2c(CO)cnc(C)c2O3)cc1` was inactive: 6.63%; that for `CCCn1c(=N)c(C(=O)NCc2cccnc2)cc2c(=O)n3cc(C)ccc3nc21` was inactive: 0.667%; that for `O=C(c1cnc2cc(-c3ccccc3)nn2c1)c1cc([N+](=O)[O-])ccc1O` was inactive: 31.2%.
As to `COc1cccc(/C=C/c2nc(C#N)c(N3CCCCC3)o2)c1`, the activation is inactive: -22.3%.
Next, `O=C(CN1CCSc2ccccc21)N1CCN(c2ccccc2)CC1`: inactive: -11.1%; `CCOC(=O)c1c(NC(=O)/C=C/c2ccc(OC)c(OC)c2)sc(C(C)=O)c1C`: inactive: -4.08%; `CCn1cc(C2N3CC4(CC)CN2CC(CC)(C3)C4=O)c2ccccc21` (configuration not stated): inactive: -21.9%.
Next, `CNC(=O)[C@H]1O[C@@H](n2cnc3c(NCc4cccc(I)c4)ncnc32)[C@H](O)[C@@H]1O`: inactive: -4.12%; `CCc1ccc(NC(=O)c2cc(-c3cccs3)on2)cc1`: inactive: -10.5%.
The value for `COC(=O)c1ccc2c(=O)n(CCCCCC(=O)NCc3ccccc3)c(=O)[nH]c2c1` was inactive: -6.43%; that for `Cc1cccc(-n2c3c(cc(-c4nc(-c5ccc(Cl)cc5)cs4)c2=O)C(=O)CC(C)(C)C3)c1` was inactive: -1.93%.
With `COc1ccccc1CNC(=O)C1CCCN(c2nn3cc(-c4ccc(F)cc4)nc3s2)C1` (configuration not stated), the activation was inactive: -3.33%.
Next, `CCOC(=O)c1cnc2cc(C(F)(F)F)ccc2c1N1CCN(c2ccc(F)cc2)CC1`: inactive: -12%; `CCOc1ccc(CCNC(=O)CS(=O)Cc2nc(-c3ccc(C)cc3)oc2C)cc1OCC` (configuration not stated): inactive: -12.4%; `CCOC(=O)c1c(C)[nH]c(C)c1S(=O)(=O)N1CCC(C(=O)Nc2ccc(F)cc2F)CC1`: inactive: 14.2%.
Next, `CCOc1ccccc1NC(=O)Cn1c(=O)n(CCCC(=O)NCCOC)c(=O)c2cc(OC)c(OC)cc21`: inactive: 5.1%; `CC(=O)c1ccc(NC(=O)c2ccc3c(c2)N(Cc2cccc(Cl)c2)C(=O)c2ccccc2S3(=O)=O)cc1`: inactive: -35.9%.

The values are drawn from PubChem BioAssay AID1346428 (National Center for Advancing Translational Sciences (NCATS), 2018).
